The labels stand for the following.
B1: TEV protease; numbered along this chain (parent)
chain: MGESLFKGPRDYNPISSSICHLTNESDGHTTSLYGIGFGPFIITNKHLFRRNNGTLVVQSLHGVFKVKDTTTLQQHLVDGRDMIIIRMPKDFPPFPQKLKFREPQREERICLVTTNFQTKSMSSMVSDTSCTFPSGDGIFWKHWIQTKDGQCGSPLVSTRDGFIVGIHSASNFTNTNNYFTSVPKNFMELLTNQEAQQWVSGWRLNADSVLWGGHKVFMVKPEEPFQPVKEATQL

In the experiment the parent is B1. The experiment is described as follows: raw area under fraction-flipped curve 0-4 h after induction (AUC4h, not background-subtracted), DNA-recorder readout of cleavage of the substrate (dimensionless); higher = more cleavage of the substrate by the protease variant. The settings on record: temperature: 34 °C; time window: 0-4 h after rhamnose induction. As to the method: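 In vivo DNA recorder in E. coli TOP10(DE3) ΔrhaA at 34 °C. Each TEVp single-site mutant (parent TEVp 0) is paired with a single-site variant of the 7-mer TEVs (canonical ENLYFQ|S). The substrate sits between flexible linkers in a Bxb1-sfGFP-TEVs-SsrA fusion, so cleavage stabilises Bxb1 and speeds flipping of a recombination array, read by NGS. The value is the raw area under the fraction-flipped curve over 0-4 h after rhamnose induction (AUC4h), with ≥20 reads per time point. It is not background-subtracted; inactive controls average about 0.047.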

Here are results for ten variants from the supplement of paper PMC12217912.

This is one part of the list. The full chains were built here from the parent and the listed change. Inactive controls read about 0.05.
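Note: Bxb1 expression induced with 0.2% (w/v) L-rhamnose at OD600 near 0.5, cultures sampled hourly, flipped fraction per protease–substrate barcode pair counted by paired-end Illumina sequencing.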

In the case of MGESLFKGPRDYNPISSSICHLTNESDGHTTSLYGIGFGPFIITNKHLFRRNNGTLVVQSLHGVFKVKDTTTLQQHLVDGRDMIIIRMPKDFPPFPQKLKFREPQREERICLVTTNFQTKSMSNMVSDTSCTFPSGDGIFWKHWIQTKDGQCGSPLVSTRDGFIVGIHSASNFTNTNNYFTSVPKNFMELLTNQEAQQWVSGWRLNADSVLWGGHKVFMVKPEEPFQPVKEATQL [S124N], the “area with substrate ENAYFQS” value came to 0.068, the “area with substrate ENEYFQS” value was determined as 0.0614, the “area with substrate ENMYFQS” value turned out to be 0.0614 and the “area with substrate ENPYFQS” value worked out at 0.0586. Besides, the “area with substrate ENWYFQS” value came to 0.0334.
MGESLFKGPRDYNPISSSICHLTNESDGHTTSLYGIGFGPFIITNKHLFRRNNGTLVVQSLHGVFKVKDTTTLQQHLVDGRDMIIIRMPKDFPPFPQKLKFREPQREERICLVTTNCQTKSMSSMVSDTSCTFPSGDGIFWKHWIQTKDGQCGSPLVSTRDGFIVGIHSASNFTNTNNYFTSVPKNFMELLTNQEAQQWVSGWRLNADSVLWGGHKVFMVKPEEPFQPVKEATQL [F117C]: the “area with substrate ENAYFQS” value was 0.0641, the “area with substrate ENCYFQS” value turned out to be 0.0699, the “area with substrate ENDYFQS” value amounted to 0.0637 and the “area with substrate ENEYFQS” value came out at 0.0654. For the same variant, the “area with substrate ENFYFQS” value is 0.0608, the “area with substrate ENKYFQS” value was determined as 0.0777, the “area with substrate ENMYFQS” value was determined as 0.0719 and the “area with substrate ENNYFQS” value is 0.0636. Further, the “area with substrate ENPYFQS” value is 0.055, the “area with substrate ENQYFQS” value turned out to be 0.0723, the “area with substrate ENRYFQS” value is 0.0721 and the “area with substrate ENSYFQS” value came out at 0.0625. Further, the “area with substrate ENTYFQS” value amounted to 0.0602, the “area with substrate ENVYFQS” value was determined as 0.0715, the “area with substrate ENWYFQS” value was 0.0114 and the “area with substrate ENYYFQS” value is 0.0607.
On to MGESLFKGPRDYNPISSSICHLTNESDGHTTSLYGIGFGPFIITNKHLFRRNNGTLVVQSLHGVFKVKDTTTLQQHLVDGRDMIIIRMPKDFPPFPQKLKFREPQREERICLVTTNSQTKSMSSMVSDTSCTFPSGDGIFWKHWIQTKDGQCGSPLVSTRDGFIVGIHSASNFTNTNNYFTSVPKNFMELLTNQEAQQWVSGWRLNADSVLWGGHKVFMVKPEEPFQPVKEATQL [F117S], for which the “area with substrate ENAYFQS” value amounted to 0.0729, the “area with substrate ENCYFQS” value came out at 0.0551, the “area with substrate ENDYFQS” value was 0.063 and the “area with substrate ENEYFQS” value turned out to be 0.0717. The “area with substrate ENGYFQS” value was determined as 0.0672, the “area with substrate ENHYFQS” value was found to be 0.0529, the “area with substrate ENIYFQS” value is 0.124 and the “area with substrate ENMYFQS” value came out at 0.0795. The “area with substrate ENNYFQS” value turned out to be 0.0433, the “area with substrate ENPYFQS” value worked out at 0.0419, the “area with substrate ENSYFQS” value was 0.0547 and the “area with substrate ENTYFQS” value was 0.0541. The “area with substrate ENYYFQS” value came out at 0.051.
Turning to MGESLFKGPRDYNPISSSICHLTNESDGHTTSLYGIGFGPFIITNKHLFRRNNGTLVVQSLHGVFKVKDTTTLQQHLVDGRDMIIIRMPKDFPPFPQKLKFREPQREERICLVTTNAQTKSMSSMVSDTSCTFPSGDGIFWKHWIQTKDGQCGSPLVSTRDGFIVGIHSASNFTNTNNYFTSVPKNFMELLTNQEAQQWVSGWRLNADSVLWGGHKVFMVKPEEPFQPVKEATQL [F117A], the “area with substrate ENAYFQS” value was determined as 0.0615, the “area with substrate ENEYFQS” value was 0.064, the “area with substrate ENFYFQS” value came out at 0.0758 and the “area with substrate ENGYFQS” value worked out at 0.096. Besides, the “area with substrate ENHYFQS” value was 0.0623, the “area with substrate ENNYFQS” value amounted to 0.052, the “area with substrate ENRYFQS” value was found to be 0.0557 and the “area with substrate ENVYFQS” value worked out at 0.0785.
Regarding MGESLFKGPRDYNPISSSICHLTNESDGHTTSLYGIGFGPFIITNKHLFRRNNGTLVVQSLHGVFKVKDTTTLQQHLVDGRDMIIIRMPKDFPPFPQKLKFREPQREERICLVTTNFITKSMSSMVSDTSCTFPSGDGIFWKHWIQTKDGQCGSPLVSTRDGFIVGIHSASNFTNTNNYFTSVPKNFMELLTNQEAQQWVSGWRLNADSVLWGGHKVFMVKPEEPFQPVKEATQL [Q118I], the “area with substrate ENAYFQS” value came to 0.0434, the “area with substrate ENCYFQS” value stood at 0.0703, the “area with substrate ENDYFQS” value came out at 0.0545 and the “area with substrate ENEYFQS” value stood at 0.0651. In addition, the “area with substrate ENFYFQS” value worked out at 0.0623, the “area with substrate ENGYFQS” value amounted to 0.0661, the “area with substrate ENIYFQS” value came to 0.121 and the “area with substrate ENMYFQS” value was found to be 0.0793. The “area with substrate ENNYFQS” value came to 0.0563, the “area with substrate ENRYFQS” value turned out to be 0.0736, the “area with substrate ENSYFQS” value came to 0.0555 and the “area with substrate ENWYFQS” value was determined as 0.0768.
Regarding MGESLFKGPRDYNPISSSICHLTNESDGHTTSLYGIGFGPFIITNKHLFRRNNGTLVVQSLHGVFKVKDTTTLQQHLVDGRDMIIIRMPKDFPPFPQKLKFREPQREERICLVTTNFDTKSMSSMVSDTSCTFPSGDGIFWKHWIQTKDGQCGSPLVSTRDGFIVGIHSASNFTNTNNYFTSVPKNFMELLTNQEAQQWVSGWRLNADSVLWGGHKVFMVKPEEPFQPVKEATQL [Q118D], the “area with substrate ENAYFQS” value came to 0.0536, the “area with substrate ENCYFQS” value came to 0.0744, the “area with substrate ENDYFQS” value amounted to 0.085 and the “area with substrate ENHYFQS” value came out at 0.0717. The “area with substrate ENKYFQS” value was 0.0737, the “area with substrate ENNYFQS” value was determined as 0.0928, the “area with substrate ENQYFQS” value stood at 0.0623 and the “area with substrate ENRYFQS” value stood at 0.0567. In addition, the “area with substrate ENSYFQS” value was found to be 0.0673, the “area with substrate ENVYFQS” value is 0.0813 and the “area with substrate ENYYFQS” value is 0.0638.
For MGESLFKGPRDYNPISSSICHLTNESDGHTTSLYGIGFGPFIITNKHLFRRNNGTLVVQSLHGVFKVKDTTTLQQHLVDGRDMIIIRMPKDFPPFPQKLKFREPQREERICLVTTNFPTKSMSSMVSDTSCTFPSGDGIFWKHWIQTKDGQCGSPLVSTRDGFIVGIHSASNFTNTNNYFTSVPKNFMELLTNQEAQQWVSGWRLNADSVLWGGHKVFMVKPEEPFQPVKEATQL [Q118P], the “area with substrate ENAYFQS” value was 0.0604, the “area with substrate ENDYFQS” value stood at 0.0432, the “area with substrate ENEYFQS” value amounted to 0.0519 and the “area with substrate ENGYFQS” value was found to be 0.0753. The “area with substrate ENHYFQS” value amounted to 0.0609, the “area with substrate ENIYFQS” value is 0.104, the “area with substrate ENMYFQS” value was found to be 0.0775 and the “area with substrate ENNYFQS” value turned out to be 0.0516. Also, the “area with substrate ENQYFQS” value was found to be 0.0601 and the “area with substrate ENYYFQS” value was 0.0616.
On to MGESLFKGPRDYNPISSSICHLTNESDGHTTSLYGIGFGPFIITNKHLFRRNNGTLVVQSLHGVFKVKDTTTLQQHLVDGRDMIIIRMPKDFPPFPQKLKFREPQREERICLVTTNFQTKSMRSMVSDTSCTFPSGDGIFWKHWIQTKDGQCGSPLVSTRDGFIVGIHSASNFTNTNNYFTSVPKNFMELLTNQEAQQWVSGWRLNADSVLWGGHKVFMVKPEEPFQPVKEATQL [S123R], for which the “area with substrate ENAYFQS” value came out at 0.058, the “area with substrate ENCYFQS” value came to 0.086, the “area with substrate ENDYFQS” value was 0.0546 and the “area with substrate ENEYFQS” value was determined as 0.0511. Also, the “area with substrate ENGYFQS” value turned out to be 0.0576, the “area with substrate ENHYFQS” value was 0.0675, the “area with substrate ENIYFQS” value is 0.12 and the “area with substrate ENKYFQS” value came out at 0.0536. Also, the “area with substrate ENMYFQS” value was 0.0782, the “area with substrate ENNYFQS” value was determined as 0.0632, the “area with substrate ENPYFQS” value was 0.0329 and the “area with substrate ENQYFQS” value worked out at 0.0499. Moreover, the “area with substrate ENRYFQS” value amounted to 0.0751 and the “area with substrate ENYYFQS” value is 0.0752.
MGESLFKGPRDYNPISSSICHLTNESDGHTTSLYGIGFGPFIITNKHLFRRNNGTLVVQSLHGVFKVKDTTTLQQHLVDGRDMIIIRMPKDFPPFPQKLKFREPQREERICLVTTNFQTKSMYSMVSDTSCTFPSGDGIFWKHWIQTKDGQCGSPLVSTRDGFIVGIHSASNFTNTNNYFTSVPKNFMELLTNQEAQQWVSGWRLNADSVLWGGHKVFMVKPEEPFQPVKEATQL [S123Y]: the “area with substrate ENAYFQS” value is 0.0624, the “area with substrate ENDYFQS” value amounted to 0.054, the “area with substrate ENEYFQS” value was 0.0594 and the “area with substrate ENKYFQS” value came out at 0.0676. Further, the “area with substrate ENNYFQS” value amounted to 0.0663, the “area with substrate ENQYFQS” value was found to be 0.0608, the “area with substrate ENTYFQS” value was found to be 0.0459 and the “area with substrate ENVYFQS” value stood at 0.0718. In addition, the “area with substrate ENWYFQS” value was 0.0534 and the “area with substrate ENYYFQS” value was determined as 0.0663.
On to MGESLFKGPRDYNPISSSICHLTNESDGHTTSLYGIGFGPFIITNKHLFRRNNGTLVVQSLHGVFKVKDTTTLQQHLVDGRDMIIIRMPKDFPPFPQKLKFREPQREERICLVTTNFQTKSMCSMVSDTSCTFPSGDGIFWKHWIQTKDGQCGSPLVSTRDGFIVGIHSASNFTNTNNYFTSVPKNFMELLTNQEAQQWVSGWRLNADSVLWGGHKVFMVKPEEPFQPVKEATQL [S123C], for which the “area with substrate ENAYFQS” value stood at 0.056, the “area with substrate ENCYFQS” value was found to be 0.0578, the “area with substrate ENDYFQS” value was 0.0655 and the “area with substrate ENEYFQS” value was 0.0418. In addition, the “area with substrate ENGYFQS” value was found to be 0.0622, the “area with substrate ENHYFQS” value was determined as 0.0592, the “area with substrate ENIYFQS” value worked out at 0.115 and the “area with substrate ENKYFQS” value worked out at 0.0619. Also, the “area with substrate ENMYFQS” value turned out to be 0.0846, the “area with substrate ENNYFQS” value was 0.0611, the “area with substrate ENRYFQS” value was 0.0657 and the “area with substrate ENSYFQS” value stood at 0.0991. The “area with substrate ENWYFQS” value amounted to 0.0106.
